This passage reports Inhibition % results from paper PMC9574860, “Chemical Toolkit for PARK7: Potent, Selective, and High-Throughput” (Journal of Medicinal Chemistry, 2022).

In all, about 7,900 compounds went through this assay and about 400 (5.1%) showed an effect of 50% or more. The list shows a part of the results.

This assay deals with Parkinson's disease protein 7 (PARK7/DJ1) (human, UniProt Q99497). The experiment in a line: primary screen, percent inhibition; read as competition with a fluorescent probe by fluorescence polarization; higher = more effect of the substance. As to conditions: 100 µM. In a few lines: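 Covalent fragments at 100 μM final were incubated 2 h with 0.2 μM PARK7, then 20 nM probe JYQ-107 added for a further 2 h. Fluorescence polarization read at 480/520 nm; relative FP loss versus reference controls gave remaining enzyme activity.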
Chain of Parkinson's disease protein 7 (PARK7/DJ1) (Q99497 whole entry, looked up, the tested form may be a part): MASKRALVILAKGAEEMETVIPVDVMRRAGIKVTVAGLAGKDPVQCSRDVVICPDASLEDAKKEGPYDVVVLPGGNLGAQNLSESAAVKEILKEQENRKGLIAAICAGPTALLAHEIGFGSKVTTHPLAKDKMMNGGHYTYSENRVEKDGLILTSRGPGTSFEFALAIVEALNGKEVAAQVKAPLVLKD
On to `C=CC(=O)NC1(c2ccc(F)c(F)c2)CC1`, for which the Inhibition % was determined as 7.92%.
As for `C=CC(=O)NCCN1CCCC1=O`, the figure is 3.27%; as for `C=CCNC(=O)CN(C#N)c1ccccc1`, 3.22%; as for `Cc1ncc(C=CC(=O)N2CCCC(N)C2)s1.Cl.Cl` (centres unmarked), 12%.
The result for `Cl.O=C(O)C1CCN(C(=O)C=Cc2ccc(F)cc2)C1` (centres unmarked) reads 2.01%; that for `CC1(C)OB(c2ccc(Cl)o2)OC1(C)C`, -2.01%.
The result for `C=CC(=O)N1CCS[C@H](C)C1` reads 3.07%; that for `Cc1cnc(S(=O)(=O)F)nc1`, 33.7%.
As to `C=CC(=O)N1CCS(=O)(=O)C(C)C1` (centres unmarked), the Inhibition % is 4.2%.
For the compound `N#CC(c1ccc(F)cc1)N1CCN(C(=O)CCl)CC1` (centres unmarked), the Inhibition % worked out at 6.3%.
The result for `N#Cc1cc(Oc2ccc(CC(=O)O)cc2)ccn1` reads 3.5%.
In the case of `C=CC(=O)NC1=NN(Cc2ccccc2)C(C)C1` (centres unmarked), the Inhibition % came out at 10.9%.
The result for `N#Cc1c(S)nc2c(c1-c1ccco1)CCC2` reads 1.97%.
The result for `COCC(C)NC(=O)C(C#N)=Cc1cccc(F)c1F` (centres unmarked) reads -1.14%; that for `C=CC(=O)N1CCSCC(C)C1` (centres unmarked), 8.62%.
The result for `COc1cc(NC(=O)CCl)cc(OC)c1OC` reads 7.91%; that for `C=CC(=O)N1CCCC1c1cccc(C)n1` (centres unmarked), 13%.
Regarding `N#CC(=Cc1c(F)cccc1F)C(N)=O`, the Inhibition % worked out at 6.29%.
Consider `CC1(C)OB(c2cnc3ccnn3c2)OC1(C)C`, for which the Inhibition % is 5.87%.
With `CC(C)(O)c1ccc(B2OC(C)(C)C(C)(C)O2)cc1`, the Inhibition % turned out to be 3.89%.
As for `OC1(C2CO2)CCOCC1` (centres unmarked), the figure is 7.63%; as for `Cc1cccc(N2CCN(C(=O)n3ccnc3)CC2)c1C`, 6.87%; as for `N#Cc1ncn(CCC(=O)Nc2c(Cl)cccc2Cl)n1`, 9.82%.
As for `CC1CC(NC(C)c2ccccc2Cl)C(=O)O1` (centres unmarked), the figure is 3.72%.
Regarding `C=CC(=O)NC1CCOC2(CCSC2)C1` (centres unmarked), the Inhibition % is recorded as 6.26%.
Take `Cl.O=C(CCl)N1CCN(c2cccc(Cl)c2)CC1`: the Inhibition % stood at 44.3%.
`Cc1nc(C=CC(=O)N2CCC(N)CC2C)cs1` (centres unmarked): the Inhibition % stood at 11%.
As for `O=C(O)Cc1ccc(OCC2CO2)cc1` (centres unmarked), the figure is 3.87%; as for `C=C(C)c1nc(C#N)c(NCc2ccccc2)o1`, 9.08%; as for `COc1cc(C=C(C#N)C(N)=O)cc(Cl)c1OC(C)C`, 7.72%.
For `COc1ccc(OC)c(C(=O)CCl)c1`, the Inhibition % stood at 11.8%.
`CC1COCCN1Cn1nc(-c2ccccc2)oc1=O` (centres unmarked): the Inhibition % is given as 1.98%.
For `Cn1nncc1C(=O)CCl`, the Inhibition % is 82.2%.
For the compound `C=CC(=O)N1CCCC(C2CCOCC2)C1` (centres unmarked), the Inhibition % was found to be 8.4%.
The result for `O=C(CCl)c1ccc(CC(=O)N2CCOCC2)s1` reads 7.37%.
